# According to patent US12116397B2, “IL-IR-I binding polypeptide” (Swedish Orphan Biovitrum AB (publ), priority 2017, dated 2024):
# Substitutions are numbered along the chain they refer to.
# T1: hIL-1R-I (Homo sapiens, UniProt P14778)
# T1 construct: purchased R&D Systems 269-1R/CF
# T1 sequence (P14778 18-569): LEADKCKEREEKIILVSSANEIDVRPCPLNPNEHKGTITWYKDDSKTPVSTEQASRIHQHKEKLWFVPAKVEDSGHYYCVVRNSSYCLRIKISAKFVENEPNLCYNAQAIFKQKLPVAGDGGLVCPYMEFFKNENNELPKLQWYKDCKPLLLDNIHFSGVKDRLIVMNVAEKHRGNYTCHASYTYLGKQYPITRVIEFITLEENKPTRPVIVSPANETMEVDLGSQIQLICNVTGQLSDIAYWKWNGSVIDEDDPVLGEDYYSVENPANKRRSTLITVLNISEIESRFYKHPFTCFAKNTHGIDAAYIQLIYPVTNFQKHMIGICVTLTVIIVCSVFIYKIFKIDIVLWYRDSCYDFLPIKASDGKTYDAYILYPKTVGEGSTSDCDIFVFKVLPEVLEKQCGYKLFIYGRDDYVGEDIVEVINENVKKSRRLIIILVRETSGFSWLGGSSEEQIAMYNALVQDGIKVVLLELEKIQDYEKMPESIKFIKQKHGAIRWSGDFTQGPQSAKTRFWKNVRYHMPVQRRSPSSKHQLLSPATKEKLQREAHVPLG
# B1: Z19159: IL-1R-I binding Z variant with valine or isoleucine in position X5 (protein)
# chain: AQHDEALEVDAKYAKETEEVQMEIFALPNLTRRQYTAFIRKLLDDPSQSSELLSEAKKLNDSQAPKVDYVLAEAKVLANRELDKYGVSDYYKNLINNAKTVEGVKALIDEILAALPYVPG
# B2: Z19172: IL-1R-I binding Z variant with valine or isoleucine in position X5 (protein)
# chain: B1 chain with T17L, E19D, M22L, A26S
# B3: Z18912: IL-1R-I binding Z variant with valine or isoleucine in position X5 (protein)
# chain: B1 chain with V20I, A26H, R33K
# B4: Z18813 (protein)
# chain: B1 chain with T17V, V20I, R33K, L43F
# B5: Z19181: IL-1R-I binding Z variant with valine or isoleucine in position X5 (protein)
# chain: B1 chain with T17V, M22L, F25Y, A26S
# B6: Z18770 (protein)
# chain: B1 chain with E19R, A26S
# B7: Z18968: IL-1R-I binding Z variant with valine or isoleucine in position X5 (protein)
# chain: B1 chain with T17L, M22L, A26R, R40I
# B8: Z18888 (protein)
# chain: B1 chain with T17V, E19A, V20I, A26H, R33K
# B9: Z18882 (protein)
# chain: B1 chain with T17V, A26D
# B10: Z18799 (protein)
# chain: B1 chain with T17V, E19A, V20I, A26H, R33K, L43F
# B11: Z18875 (protein)
# chain: B1 chain with T17I, E19A, V20I, A26H
# B12: Z18866 (protein)
# chain: B1 chain with T17I, V20I, A26H, R33K
# B13: Z19072: IL-1R-I binding Z variant with valine or isoleucine in position X5 (protein)
# chain: B1 chain with T17I, V20I, M22L, A26S, R33K
# Molecular target: T1, hIL-1R-I
# Test: Biacore affinity/kinetic analysis of His6-tagged Z variants, human IL-1R-I
# Assay type: binding
# Conditions: His6-Z polypeptides binding to human IL-1R-I, Biacore, Table 19
# Method: Affinities (KD) for human and cynomolgus IL-1R-I were determined for His6-tagged Z variants using a Biacore 2000 instrument (GE Healthcare). hIL-1R-I or cIL-1R-I-His6 was immobilized on the carboxylated dextran layer in different flow cells of a CM5 chip (GE Healthcare, cat. no. BR100012). The immobilization was performed using amine coupling chemistry according to the manufacturer's protocol. Acetate pH 4.5 (GE Healthcare, cat. no. BR100350) was used for ligand dilution and HBS-EP (GE Healthcare, cat. no. BR100188) was used as running buffer. One flow cell surface on the chip was activated and deactivated for use as blank during analyte injections. In the kinetic experiment, HBS-EP was used as running buffer, the flow rate was 50 μl/min and the temperature was 25° C. The analytes, i.e. the Z variants, were each diluted in HBS-EP buffer to final concentrations of 40 nM and 10 nM, and were injected over the target chip surfaces for 2 min, followed by dissociation in running buffer for 8 min. Kinetic constants were calculated from the obtained sensorgrams using a 1:1 binding model, in the BiaEvaluation software 4.1 (GE Healthcare).
# The kinetic constants (kon and koff) and affinities (KD) for human and cynomolgus IL-1R-I were determined for His6-tagged Z variants using a Biacore 2000 instrument (GE Healthcare). The experiment was run essentially as described in Example 2, using 100, 10 and 1 nM of the Z variants. The analyte injection time was 3 min followed by 15 min dissociation and 2×5 s glycine pH 3.0 (GE Healthcare, cat. no. BR100357), supplemented with 0.5 M NaCl, was used for regeneration of the surfaces between the cycles. Kinetic constants were calculated from the obtained sensorgrams of two or three concentrations of the respective Z variant, using a 1:1 binding model in the BiaEvaluation software 4.1 (GE Healthcare). His6-tagged Z12967 was included in the assay for comparison.
# The kinetic constants (kon and koff) and affinities (KD) for human and cynomolgus IL-1R-I were determined for His6-tagged Z variants using a Biacore 2000 instrument (GE Healthcare). The experiment was run essentially as described in Example 5, using 48, 12, 3 and 0.75 nM of the Z variants. The analyte injection time was 3 min followed by 6 min dissociation and 2×5 s glycine pH 3.0, supplemented with 0.5 M NaCl, was used for regeneration of the surfaces between the cycles. Kinetic constants were calculated from the obtained sensorgrams of three or four concentrations of the respective Z variant, using a 1:1 binding model in the BiaEvaluation software 4.1 (GE Healthcare). His6-tagged Z12967 (SEQ ID NO:9), Z16065 (SEQ ID NO:268), Z16163 (SEQ ID NO:359) and Z18557 (SEQ ID NO:1205) were included in the assay for comparison.
koff,kon,Molecule
0.005 s⁻¹,2.7e+07 M⁻¹ s⁻¹,B1
0.023 s⁻¹,4.9e+07 M⁻¹ s⁻¹,B2
0.019 s⁻¹,9.2e+07 M⁻¹ s⁻¹,B3
0.0039 s⁻¹,2e+07 M⁻¹ s⁻¹,B4
0.016 s⁻¹,2e+07 M⁻¹ s⁻¹,B5
0.005 s⁻¹,3e+07 M⁻¹ s⁻¹,B6
0.0084 s⁻¹,3e+07 M⁻¹ s⁻¹,B7
0.0029 s⁻¹,1.8e+07 M⁻¹ s⁻¹,B8
0.003 s⁻¹,1.2e+07 M⁻¹ s⁻¹,B9
0.0045 s⁻¹,2.6e+07 M⁻¹ s⁻¹,B10
0.0028 s⁻¹,2.4e+07 M⁻¹ s⁻¹,B11
0.0042 s⁻¹,3.6e+07 M⁻¹ s⁻¹,B12
0.018 s⁻¹,4.3e+07 M⁻¹ s⁻¹,B13

# Same assay, conditions: His6-Z polypeptides binding to human IL-1R-I, Biacore, Table 19; read-out: KD
row,Kd,Molecule
1,0.19 nM,B1
2,0.46 nM,B2
3,0.21 nM,B3
4,0.82 nM,B5
5,0.17 nM,B6
6,0.28 nM,B7
7,0.16 nM,B8
8,0.25 nM,B9
9,0.18 nM,B10
10,0.12 nM,B11
11,0.12 nM,B12
12,0.41 nM,B13

# Tested on: not listed separately
# Test: Circular dichroism (CD) spectroscopy analysis, melting temperature and refolding
# Assay type: physicochemical
# Conditions: His6-tagged Z variants, CD variable temperature measurement, Table 21
# Method: Purified His6-tagged Z variants were diluted to 0.5 mg/ml in PBS. For each diluted Z variant, a CD spectrum at 250-195 nm was obtained at 20° C. In addition, a variable temperature measurement (VTM) was performed to determine the melting temperature (Tm). In the VTM, the absorbance was measured at 221 nm while the temperature was raised from 20 to 90° C., with a temperature slope of 5° C./min. A new CD spectrum was obtained at 20° C. after the heating procedure in order to study the refolding ability of the Z variants. The CD measurements were performed on a Jasco J-810 spectropolarimeter (Jasco Scandinavia AB) using a cell with an optical path length of 1 mm.
# CD was analyzed for His6-tagged Z variants, as described in Example 2.
row,Molecule,Melting temperatures (Tm)
1,B1,54 °C
2,B2,59 °C
3,B3,53 °C
4,B4,61 °C
5,B5,61 °C
6,B6,59 °C
7,B7,62 °C
8,B8,61 °C
9,B9,53 °C
10,B10,60 °C
11,B11,61 °C
12,B12,61 °C
13,B13,63 °C

# Same assay, conditions: His6-tagged; valine or isoleucine in position X5 of the BM (Example 9)
row,Molecule,thermo-stability and α-helical content versus Z variants having alanine in position X5
1,B1,not substantially different
2,B2,not substantially different
3,B3,not substantially different
4,B5,not substantially different
5,B7,not substantially different
6,B13,not substantially different

# Tested on: TF-1 cells
# Test: In vitro IL-1β neutralization assay (TF-1 cell assay)
# Assay type: cell-based
# Conditions: His6-Z polypeptides, IL-1β inhibition in TF-1 cell assay, Table 20 (Example 9)
# Method: The TF-1 cell line proliferates in response to many different cytokines including IL-1β. This cell line was used to assess the ability of primary IL-1R1 binders to inhibit IL-1β actions. TF-1 cells were maintained in RPM11640 with L-glutamine (Lonza) supplemented with 10% FCS (Gibco), Penicillin-Streptomycin (Lonza) and 2 ng/ml rhGM-CSF (R&D Systems). Prior to use, cells were washed twice in RPM11640 without rhGM-CSF. Cells were then counted and dispensed into 96 well flat bottomed plates at a density of 3×10^4 cells per well. In separate plates, serial dilutions of the inhibitory binders; His6-tagged IL-1R-I binding Z variants, with a concentration range of 400-0.1 nM, or the IL-1R-I binding protein Kineret (anakinra, Sobi), with a concentration range of 0.3-0.0003 nM, were incubated in the presence of 0.6 nM IL-1β (PeproTech). The pre-mixed complexes of the Z variant polypeptides and IL-13 were transferred to wells containing TF-1 cells. The cells were stimulated for 72 h at 37° C. in a humidified 5% CO2 atmosphere. During the last four hours of incubation, 19 μl of 2× diluted CCK-8 (Fluka, Sigma Aldrich), was added per well to determine the proliferative responses. The absorbance was measured at 450 nm using a microplate reader (Victor3, Perkin Elmer). The data on cell growth was assessed by non-linear regression to a four-parameter dose-response curve, and the half maximal inhibitory concentration (IC50) was determined using GraphPadPrism program.
# (§1) His6-tagged IL-1R-I specific Z variants were tested for their inhibitory capacity in the TF-1 cell assay. The assay was run as described in Example 2. The data on cell growth was assessed by non-linear regression to a four-parameter dose-response curve, and IC50 values were determined using GraphPadPrism program. His6-tagged Z12967 was included for comparison.
# as §1, with “Z12967, Z16065, Z16163 and Z18557 were” for “Z12967 was”
row,IC50,Molecule
1,1.2 nM,B1
2,2 nM,B2
3,1 nM,B3
4,1.2 nM,B4
5,4.6 nM,B5
6,1.4 nM,B7
7,2.4 nM,B13
